Data published in article PMC4564177.
No constants are given. Whether binding was seen depends on the method and setting. In cells and extracts the contact can be indirect. Some entries that bind do so weakly or less than the wild type. Tags and fused reporters may be left off the sequences shown.

Chains of the proteins cited; added tags and fusions are not shown. Lines headed by an entry give the natural chain unless they say otherwise; changes in a name come on top. A line that says so, or that is headed by a name, gives the form on record, which may keep a tag or linker. Residues count along the entry.
myc-GFP-CRHR1 (P35347, residues 24-415): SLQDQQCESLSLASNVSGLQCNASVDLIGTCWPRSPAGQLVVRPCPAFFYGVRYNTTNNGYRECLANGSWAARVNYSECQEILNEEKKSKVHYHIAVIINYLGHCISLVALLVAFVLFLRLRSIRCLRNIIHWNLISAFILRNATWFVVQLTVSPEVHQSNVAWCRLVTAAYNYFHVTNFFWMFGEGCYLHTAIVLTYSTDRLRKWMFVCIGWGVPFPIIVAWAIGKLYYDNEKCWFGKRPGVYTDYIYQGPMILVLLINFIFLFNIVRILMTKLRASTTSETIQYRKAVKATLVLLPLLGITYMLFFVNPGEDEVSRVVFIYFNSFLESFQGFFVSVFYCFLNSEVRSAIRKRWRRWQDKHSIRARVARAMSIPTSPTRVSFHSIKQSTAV
myc-GFP-CRHR1-STAVA (P35347, form named): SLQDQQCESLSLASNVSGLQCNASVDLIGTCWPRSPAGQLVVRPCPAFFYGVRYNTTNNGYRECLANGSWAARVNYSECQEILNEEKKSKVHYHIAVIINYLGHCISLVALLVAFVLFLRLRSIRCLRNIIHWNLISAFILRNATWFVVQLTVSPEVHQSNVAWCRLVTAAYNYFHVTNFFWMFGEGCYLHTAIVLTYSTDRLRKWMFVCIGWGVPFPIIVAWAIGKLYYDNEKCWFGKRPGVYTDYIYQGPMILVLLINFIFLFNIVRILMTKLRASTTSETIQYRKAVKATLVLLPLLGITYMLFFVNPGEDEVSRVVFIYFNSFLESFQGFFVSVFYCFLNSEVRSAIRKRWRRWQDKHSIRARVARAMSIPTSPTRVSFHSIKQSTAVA

Columns and labels:
myc-GFP-CRHR1 (mouse) = myc-GFP-CRHR1 (mouse) (UniProt P35347); assay: co-IP; lysates of HEK293 cells transiently co-transfected; IP overnight at 4°C with anti-GFP, anti-myc, anti-HA or anti-flag and Protein G Dynabeads; washes with 500 mM NaCl, 0.1% SDS, 0.5% Triton X-100; immunoblot; for syntenin-1 under basal conditions and after CRH (100 nM) treatment
[1] = molecular target: myc-GFP-CRHR1-STAVA (mouse) (UniProt P35347); assay: as above

| binding (myc-GFP-CRHR1 (mouse)) | binding [1] | Binder |
| --- | --- | --- |
| no binding | – | flag-SAP102 PDZ3 (aa 394–849) (domain or fragment, UniProt P70175 394-849) AEEDFTREPRKIILHKGSTGLGFNIVGGEDGEGIFVSFILAGGPADLSGELRRGDRILSVNGVNLRNATHEQAAAALKRAGQSVTIVAQYRPEEYSRFESKIHDLREQMMNSSMSSGSGSLRTSEKRSLYVRALFDYDRTRDSCLPSQGLSFSYGDILHVINASDDEWWQARLVTPHGESEQIGVIPSKKRVEKKERARLKTVKFHARTGMIESNRDFPGLSDDYYGAKNLKGVTSNTSDSESSSKGQEDAILSYEPVTRQEIHYARPVIILGPMKDRVNDDLISEFPHKFGSCVPHTTRPRRDNEVDGQDYHFVVSREQMEKDIQDNKFIEAGQFNDNLYGTSIQSVRAVAERGKHCILDVSGNAIKRLQQAQLYPIAIFIKPKSIEALMEMNRRQTYEQANKIFDKAMKLEQEFGEYFTAIVQGDSLEEIYNKIKQIIEDQSGHYIWVPSPEKL |
| binds | no binding | flag-SAP102 (protein, UniProt P70175 1-849) MHKHQHCCKCPECYEVTRLAALRRLEPPGYGDWQVPDPYGPSGGNGASSGYGGYSSQTLPSQAGATPTPRTKAKLIPTGRDVGPVPPKPVPGKSTPKLNGSGPGWWPECTCTNRDWYEQASPAPLLVNPEALEPSLSVNGSDGMFKYEEIVLERGNSGLGFSIAGGIDNPHVPDDPGIFITKIIPGGAAAMDGRLGVNDCVLRVNEVDVSEVVHSRAVEALKEAGPVVRLVVRRRQPPPETIMEVNLLKGPKGLGFSIAGGIGNQHIPGDNSIYITKIIEGGAAQKDGRLQIGDRLLAVNNTNLQDVRHEEAVASLKNTSDMVYLKVAKPGSIHLNDMYAPPDYASTFTALADNHISHNSSLGYLGAVESKVTYPAPPQVPPTRYSPIPRHMLAEEDFTREPRKIILHKGSTGLGFNIVGGEDGEGIFVSFILAGGPADLSGELRRGDRILSVNGVNLRNATHEQAAAALKRAGQSVTIVAQYRPEEYSRFESKIHDLREQMMNSSMSSGSGSLRTSEKRSLYVRALFDYDRTRDSCLPSQGLSFSYGDILHVINASDDEWWQARLVTPHGESEQIGVIPSKKRVEKKERARLKTVKFHARTGMIESNRDFPGLSDDYYGAKNLKGVTSNTSDSESSSKGQEDAILSYEPVTRQEIHYARPVIILGPMKDRVNDDLISEFPHKFGSCVPHTTRPRRDNEVDGQDYHFVVSREQMEKDIQDNKFIEAGQFNDNLYGTSIQSVRAVAERGKHCILDVSGNAIKRLQQAQLYPIAIFIKPKSIEALMEMNRRQTYEQANKIFDKAMKLEQEFGEYFTAIVQGDSLEEIYNKIKQIIEDQSGHYIWVPSPEKL |
